The supplement of paper PMC10369915
The other results are listed elsewhere or left out. Rule as the data show it: active = 3.2 or more and inactive = the rest. Only a few entries rise above the background.

Legend:
Experiment in all cases: enrichment score (SH2-bound / input frequency) (ratio); bacterial display of known human phosphotyrosine sites (pTyr-Var adds point mutants) read by sequencing; higher = stronger binding; tyrosines were phosphorylated by kinases first
Settings in all cases: peptide library: pTyr-Var
[1] = biological target: SHP2 C-SH2 domain E139D
[2] = biological target: SHP2 C-SH2 domain wild-type
[3] = biological target: SHP2 N-SH2 domain L43F
[4] = biological target: SHP2 N-SH2 domain T42A
[5] = biological target: SHP2 N-SH2 domain T52S
[6] = biological target: SHP2 N-SH2 domain wild-type

Measured: enrichment score
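Also: displayed peptides selected on beads carrying the immobilized SH2 domain, with library peptides lacking any tyrosine serving as negative controls.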

HVSISYDIPPT [GAB1_Y307]
inactive: [1] 1.04 | [2] 0.639 | [3] 1.16 | [4] 0.743 | [5] 1.02 | [6] 0.868

DTDSSYCIPTA [GAB1_Y373]
inactive: [1] 0.52 | [2] 0.639 | [3] 0.636 | [4] 0.699 | [5] 0.694 | [6] 0.799

TPLSAYQIPRT [GAB2_Y324]
inactive: [1] 0.846 | [2] 0.776 | [3] 0.744 | [4] 0.595 | [5] 0.554 | [6] 0.673

PTATSYTPNLA [GABRA1_Y375]
inactive: [1] 0.742 | [2] 0.795 | [3] 0.79 | [4] 0.77 | [5] 0.776 | [6] 0.766

RAIDMYLMGCF [GABRB2_Y308_K303R]
inactive: [1] 0.874 | [2] 1.1 | [3] 0.832 | [4] 1.19 | [5] 0.981 | [6] 1.04

GRSTYYWPRPR [GAGE12J_Y10]
inactive: [1] 0.275 | [2] 0.228 | [3] 0.289 | [4] 0.268 | [5] 0.236 | [6] 0.271

GRSTFYWPRPR [GAGE12J_Y10_YF]
inactive: [1] 0.233 | [2] 0.222 | [3] 0.208 | [4] 0.279 | [5] 0.314 | [6] 0.239

RGRSTYFWPSP [GAGE12J_Y9_R13S_YF]
inactive: [1] 0.284 | [2] 0.138 | [3] 0.326 | [4] 0.294 | [5] 0.197 | [6] 0.38

RGRSTCFWPRP [GAGE12J_Y9_Y9C_YF]
inactive: [1] 0.27 | [2] 0.204 | [3] 0.256 | [4] 0.171 | [5] 0.295 | [6] 0.247

RGRSTYFWPRP [GAGE12J_Y9_YF]
inactive: [1] 0.227 | [2] 0.256 | [3] 0.225 | [4] 0.272 | [5] 0.156 | [6] 0.239

QKPLDYYRVNL [GALE_Y104]
inactive: [1] 0.945 | [2] 0.77 | [3] 0.787 | [4] 0.768 | [5] 0.683 | [6] 1.13

QKPLDYFRVNL [GALE_Y104_YF]
inactive: [1] 0.878 | [2] 0.65 | [3] 0.905 | [4] 0.677 | [5] 0.825 | [6] 0.685

TGVWDYIHVVD [GALE_Y241_R239W]
inactive: [1] 0.922 | [2] 0.994 | [3] 0.966 | [4] 0.882 | [5] 0.836 | [6] 1.34

LASSEYPVRRR [GALK1_Y236]
inactive: [1] 0.2 | [2] 0.176 | [3] 0.21 | [4] 0.18 | [5] 0.251 | [6] 0.232

LASSEYPVQRR [GALK1_Y236_R239Q]
inactive: [1] 0.517 | [2] 0.283 | [3] 0.641 | [4] 0.617 | [5] 0.694 | [6] 0.7

KPSLKYVTYGN [GALNTL5_Y404_G401S]
inactive: [1] 1.2 | [2] 0.954 | [3] 1.56 | [4] 1.49 | [5] 1.45 | [6] 1.11

PADCRYYAFPQ [GAMT_Y222]
inactive: [1] 0.634 | [2] 0.747 | [3] 0.797 | [4] 0.743 | [5] 0.806 | [6] 0.76

ADCRYYAFPQM [GAMT_Y223]
inactive: [1] 1.45 | [2] 1.37 | [3] 1.51 | [4] 1.1 | [5] 0.862 | [6] 1.67

ADCRYYTFPQM [GAMT_Y223_A224T]
inactive: [1] 0.932 | [2] 1.34 | [3] 1.1 | [4] 1.08 | [5] 1.29 | [6] 0.999
